Measurements taken from PubChem BioAssay AID624296 (National Center for Advancing Translational Sciences (NCATS), 2012).
The whole screen tested about 350,000 compounds, of which about 9,900 (2.8%) were called active. The inconclusive results got no clear call from the source; some entries with a clear call stand among them for comparison. The call rests on the fitted dose curve; in most records, active means well fitted activation curve with a large enough effect; inconclusive means small, poorly fitted or top-dose-only effect; inactive means no such curve, though single readings can be large or run the other way. Potencies of inconclusive entries are left out as doubtful fits.

assay: A quantitative high throughput screen for small molecules that induce DNA re-replication in MCF 10a normal breast cells.; further: nearly all actives have a fitted effect of over 50% in size; conditions: MCF 10A DNA re-replication, Hoechst nuclear intensity, 48 h; series mostly up to 46.1 µM
Potency means the concentration at half of the fitted maximal effect; tags describe the fitted curve by direction and shape.

SMILES	Potency
O=C1Cc2ccccc2C(c2ccc(Cl)cc2)N1 (stereo unspecified)	inconclusive [activator, full curve, poor fit]
O=C(Nc1cccc2ncccc12)c1ccc([N+](=O)[O-])o1	active: 4.61 µM
O=[N+]([O-])c1cccc(S(=O)(=O)N2CCCCC2c2cccnc2)c1 (stereo unspecified)	inactive
Cc1cc(O)ccc1Nc1nc(-c2cccnc2)cs1	inactive
CSc1nnc(C)c(/C=C/Nc2ccc(C)cc2)n1	inconclusive [activator, single point]
C/C(=N\Nc1nc2ccccc2[nH]1)c1ccc2c(c1)OCO2	inconclusive [activator, partial curve, poor fit]
O=C(c1ccc(Cl)cc1)c1oc2ccccc2c1CS(=O)(=O)c1ccccc1	inconclusive [activator, partial curve, poor fit]
COc1cc(OC)nc(Oc2cc(/C=N/O)ccc2OC)n1	inconclusive [activator, single point]
C=COC(=O)c1sc2nc(C)cc(C)c2c1N	inconclusive [activator, partial curve, poor fit]
CCOC(=O)[C@H]1[C@H]2COc3ccc(OC)cc3[C@@H]2N2C(=O)c3ccccc3NC(=O)[C@@]12C	inconclusive [activator, partial curve, poor fit]
Cc1cc(OCC(=O)N[C@@H](Cc2ccccc2)c2nc3ccccc3[nH]2)ccc1Cl	inconclusive [activator, single point]
CC1C(Br)C(=O)NC(=O)N1Cc1ccccc1 (stereo unspecified)	inactive
CCOC(=O)NC1(NC2CCCCC2)Oc2ccccc2O1	inconclusive [activator, full curve, poor fit]
CCN(CCn1cccn1)Cc1nc(-c2ccc(OC)cc2)no1	inactive
O=S1(=O)N[C@@H](CC2CCCCC2)COc2cc(Br)ccc21	inconclusive [activator, partial curve]
CCN(CC)S(=O)(=O)c1ccc(-c2csc(C)n2)cc1	inconclusive [activator, single point]
Cc1[nH]c2ccccc2c1C(=O)NS(=O)(=O)Nc1ccccc1	inconclusive [activator, full curve, poor fit]
CN1C(=O)C2(OCC(CO)([N+](=O)[O-])CO2)c2ccccc21 (stereo unspecified)	inconclusive [activator, single point]
COc1cnc(-c2ccccn2)nc1Oc1cccc(Cl)c1	inactive
COc1ccc(C(=O)NCCNc2nc3c(C)cccc3cc2C#N)cc1OC	active: 0.58 µM
CCOC(=O)C1=C(N)n2c(s/c(=C/c3ccco3)c2=O)=C(C(=O)OC)C1c1ccco1 (stereo unspecified)	active: 6.51 µM
CCOC(=O)c1cnc2ccc(C)cc2c1Nc1ccc(N2CCOCC2)cc1	active: 20.6 µM
BrC(=C\c1ccccc1)/C=N/N1CCN(c2ccccn2)CC1	active: 20.6 µM
Cc1ccc(Oc2ccc(C(=O)NCc3ccncc3)cc2)cc1	inactive

SMILES	Potency
CC1CCN(C(=O)CCCN2C(=O)c3cccnc3Oc3ccc(Cl)cc32)CC1	inconclusive [activator, full curve, poor fit]
NC(=O)c1ccc(NC(=O)COC(=O)c2ccc(Br)o2)cc1	inactive
O=C(COC(=O)c1cc2ccccc2cc1O)NC1CCCCC1	inconclusive [activator, partial curve, poor fit]
S=c1[nH]nc2ccccn12	inconclusive [activator, single point]
CCCCN(C(=O)c1cccc(S(=O)(=O)N(CC)c2ccccc2)c1)c1c(N)n(CC(C)C)c(=O)[nH]c1=O	inactive
O=C(c1cc(-c2ccc(Cl)cc2)n[nH]1)N1CCc2ccccc2C1	inconclusive [activator, single point]
O=c1c(-c2c(O)cc(O)c3c(=O)cc(-c4ccc(O)cc4)oc23)c(-c2ccc(O)cc2)oc2cc(O)cc(O)c12	inconclusive [activator, single point]
CCOc1ccccc1OCC(=O)Nc1cc(S(=O)(=O)N2CCCCC2)ccc1OC	inconclusive [activator, single point]
S=C(Nc1cc(Cl)cc(Cl)c1)NC1CCN(Cc2ccccc2)CC1	inconclusive [activator, partial curve, poor fit]
CCOC(=O)c1ccc(NC2=CC(=O)CC(c3ccco3)C2)cc1 (stereo unspecified)	inconclusive [activator, partial curve, poor fit]
CCCCCn1ccc(=N)cc1	inactive
Cc1c(O)ccc(/C(Cc2ccc3ccccc3n2)=N\O)c1O	inconclusive [activator, partial curve, poor fit]
CCCCN1C(=O)C(=O)c2cc(Cl)ccc21	active: 23.1 µM
COc1cc(C#Cc2ccc3cc(C(C)(C)O)oc(=O)c3c2)cc(OC)c1	inconclusive [activator, full curve, poor fit]
CN1CCN(c2nc(-c3cccnc3)nc3ccccc23)CC1	inactive
Cc1c(NC(=O)C(C)OC(=O)c2cc(Cl)ccc2O)c(=O)n(-c2ccccc2)n1C (stereo unspecified)	inactive
CN(C(=O)c1cc2nc(-c3ccco3)cc(C(F)(F)F)n2n1)C1CCCCC1	inconclusive [activator, single point]
Cc1ccccc1OCCC(=O)Nc1ccc(S(=O)(=O)N(C)C2CCN(C)CC2)cc1	inconclusive [activator, single point]
CC(Sc1nnc2c(n1)[nH]c1ccccc12)C(=O)NC1CCCCC1 (stereo unspecified)	inconclusive [activator, single point]
COc1ccc(/C=N\NC(=O)c2ccc(F)cc2)cc1COc1ccccc1C(N)=O	inconclusive [activator, single point]
Cn1c(=O)cc(OCC(=O)Nc2ccccn2)c2ccccc21	inactive
CC(C)(C)c1ccc(C(=O)NCc2ccc(Cl)cc2)cc1	inactive
Cc1nnc(NC(=O)C2CC(=O)N(Cc3ccccc3)C2)s1 (stereo unspecified)	inactive
OCC1CCCN(Cc2ccc(-c3ccccc3)cc2)C1 (stereo unspecified)	inconclusive [activator, single point]

SMILES	Potency
COc1cc2c(cc1CNC[C@H]1O[C@@H](n3cnc(C(N)=O)n3)[C@H](O)[C@@H]1O)OCO2	inactive
CCn1c(C)cc(C=C2C(=O)c3ccccc3C2=O)c1C	inconclusive [activator, single point]
Cn1c(=O)c(C(=O)NNC(=O)c2cccc(Cl)c2)c(O)c2ccccc21	active: 7.31 µM
CCCOc1cccc(-c2nnc(NC(=O)c3ccco3)s2)c1	active: 8.2 µM
COC(=O)c1cn(Nc2ncc(C(F)(F)F)cc2Cl)c(=O)c2ccccc12	inconclusive [activator, partial curve, poor fit]
O=C(Nc1ccc(F)cc1)c1ccc(CSc2ccccc2)o1	inconclusive [activator, single point]
CCOC(=O)Cn1c(=O)n(Cc2ccc(C)cc2)c(=O)c2cccnc21	inconclusive [activator, single point]
C=CCn1c(SC(C)C(=O)NCCC2=CCCCC2)nc2ccccc2c1=O (stereo unspecified)	inconclusive [activator, single point]
CCOC(=O)C1(CCOc2ccccc2)CCN(Cc2cc(OC)c(O)cc2Cl)CC1	inconclusive [activator, partial curve]
CCOC(=O)Cn1nnc2c(sc3nc4c(c(-c5ccccc5)c32)CCC4)c1=O	inconclusive [activator, partial curve, poor fit]
COc1ccc(-c2nnc(SCC(=O)Nc3cccc(Cl)c3)o2)cc1	inconclusive [activator, partial curve, poor fit]
CC1(C)Cc2cccc(OCC(=O)N3CCN(c4ccccc4F)CC3)c2O1	inconclusive [activator, partial curve, poor fit]
Fc1ccc(CSc2nnc3ccccn23)c(Cl)c1	inactive
Clc1ccccc1-c1nnc(-c2cccs2)o1	inactive
Cc1ccc(-c2csc3nc(SCC(N)=O)n(Cc4ccccc4)c(=O)c23)cc1	inconclusive [activator, partial curve, poor fit]
COc1ccc(F)cc1S(=O)(=O)N1CCN(c2ccccn2)CC1	inconclusive [activator, single point]
CC(C)(C)NC(=O)Cn1cnc2cc([N+](=O)[O-])ccc2c1=O	inconclusive [activator, partial curve, poor fit]
Cc1ccc([N+](=O)[O-])cc1S(=O)(=O)Nc1ccc(OCC(=O)N2CCOCC2)cc1	inconclusive [activator, single point]
CCn1c(=O)cc(SCC(=O)N2CCN(c3ccccc3F)CC2)c2ccccc21	inconclusive [activator, partial curve, poor fit]
Cc1nc(-c2ccccc2)cn(O)c1=O	inactive
Cc1onc(-c2ccccc2Cl)c1C(=O)N1CCN(c2cccc(Cl)c2)CC1	inconclusive [activator, full curve]
O=C(NCCCn1ccnc1)c1ccc(Br)cc1	inactive
COc1ccc(/C=C/C(=O)NCC2COc3ccccc3O2)c(OC)c1 (stereo unspecified)	inactive
